PMC4336329 (PLoS ONE, 2015)
The whole screen tested about 310,000 compounds, of which about 2,200 (0.71%) showed an effect of 50% or more. Effects have a minus sign here. The list shows a part of the results.

The compounds below were run against human ether-à-go-go-related gene (hERG) potassium channel (human, UniProt Q12809) (assay: primary screen, population patch clamp on CHO cells stably expressing hERG).
Sequence of human ether-à-go-go-related gene (hERG) potassium channel (Q12809 whole entry, looked up): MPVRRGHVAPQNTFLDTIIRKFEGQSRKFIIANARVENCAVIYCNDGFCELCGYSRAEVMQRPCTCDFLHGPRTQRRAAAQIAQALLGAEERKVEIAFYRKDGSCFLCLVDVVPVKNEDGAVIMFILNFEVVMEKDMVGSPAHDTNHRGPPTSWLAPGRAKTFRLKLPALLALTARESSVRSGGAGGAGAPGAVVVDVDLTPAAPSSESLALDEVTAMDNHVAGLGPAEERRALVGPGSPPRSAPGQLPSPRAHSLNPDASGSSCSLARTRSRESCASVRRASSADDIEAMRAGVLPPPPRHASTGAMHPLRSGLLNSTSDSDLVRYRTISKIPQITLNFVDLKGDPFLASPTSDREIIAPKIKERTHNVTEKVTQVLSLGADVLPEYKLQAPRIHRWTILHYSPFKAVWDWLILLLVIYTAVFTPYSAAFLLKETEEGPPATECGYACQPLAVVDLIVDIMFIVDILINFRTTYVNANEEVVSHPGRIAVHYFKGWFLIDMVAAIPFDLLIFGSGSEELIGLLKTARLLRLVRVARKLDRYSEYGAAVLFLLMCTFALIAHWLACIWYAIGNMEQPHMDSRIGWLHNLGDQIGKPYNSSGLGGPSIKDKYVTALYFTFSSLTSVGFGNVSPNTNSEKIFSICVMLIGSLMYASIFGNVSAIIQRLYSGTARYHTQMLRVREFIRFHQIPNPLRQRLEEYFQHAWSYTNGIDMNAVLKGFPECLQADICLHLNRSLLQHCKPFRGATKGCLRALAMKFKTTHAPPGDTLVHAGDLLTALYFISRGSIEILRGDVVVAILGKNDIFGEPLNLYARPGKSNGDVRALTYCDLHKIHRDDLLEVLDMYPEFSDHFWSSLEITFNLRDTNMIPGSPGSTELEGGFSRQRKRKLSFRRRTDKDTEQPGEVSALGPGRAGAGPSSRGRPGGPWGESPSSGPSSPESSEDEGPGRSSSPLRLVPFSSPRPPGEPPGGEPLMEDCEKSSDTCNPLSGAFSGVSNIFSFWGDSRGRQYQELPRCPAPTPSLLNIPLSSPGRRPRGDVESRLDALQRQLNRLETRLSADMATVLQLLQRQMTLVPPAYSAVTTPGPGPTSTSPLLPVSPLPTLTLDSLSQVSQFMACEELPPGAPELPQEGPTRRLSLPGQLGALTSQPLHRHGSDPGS

| Structure (SMILES) | hERG current change (%, negative = inhibition) at 1uM |
| --- | --- |
| CC(C)(C)/C=N/NC(=O)CNC(=O)c1ccc2c(c1)OCCO2 | 15.4% |
| CCCCc1cc2ccccc2c(OCCN(C)C)n1.Cl | 1.3% |
| Cc1oc2cc3oc(=O)c(CCC(=O)NCCC(=O)O)c(C)c3cc2c1C | 17.7% |
| Cc1c(C(=O)Nc2cccc(F)c2)cnn1-c1ccccc1 | 8.93% |
| CCc1ccc(C(C)NC(=O)C2CCCC2)cc1 (centres unmarked) | 16.6% |
| O=S1(=O)C=C(Sc2nc3ccccc3s2)c2ccccc21 | 9.04% |
| Cc1ccc(-c2nnn(CC(=O)N(Cc3cccs3)C(C(=O)NC(C)(C)C)c3ccc(C)o3)n2)o1 (centres unmarked) | -12.2% |
| S=C(NCCc1ccccc1)NC1CC1 | 19.2% |
| CCOc1ccc(N2C(=O)C3ON(c4ccccc4)C(c4ccco4)C3C2=O)cc1 (centres unmarked) | 4.79% |
| CC(C)(C)S(=O)(=O)c1cnc2c(S(=O)(=O)c3ccccc3)cnn2c1N | 9.5% |
| CNc1oc(-c2ccco2)nc1C#N | -11.5% |
| COc1ccc2oc(C(=O)OCc3c(C)noc3C)c(C)c2c1 | 9.99% |
| CC(=O)O/C(=C\c1cn(C(C)=O)c2ccccc12)C(=O)O | 15.2% |
| Cc1ccc2c(c1)nnn2C1CCN(CC(=O)N2CCN(c3ccc(F)cc3)CC2)CC1 | -52.5% |
| CCOC(=O)n1ccc(C(=O)Nc2ccccc2F)n1 | 5.92% |
| CCOC(=O)NC(NC(=S)Nc1ccccc1OC)C(Cl)(Cl)Cl (centres unmarked) | 16% |
| COc1ccc(CN(Cc2ccccn2)C(=O)CN2C(=O)C(C)Oc3ccccc32)cc1 (centres unmarked) | 4.34% |
| COc1ccc(OCc2nnc(SCC(=O)Nc3cccc(C(C)=O)c3)o2)cc1 | 5.32% |
| c1ccc(-c2nc3c(ccc4ccccc43)[nH]2)nc1 | 8.12% |
| COc1ccc(Cn2c(=S)[nH]c3cc(C(=O)N4CCCCC4)ccc3c2=O)cc1 | 10.3% |
| CC(OC(=O)C1CCN(S(=O)(=O)c2ccc(F)cc2)CC1)C(=O)NC1CCCCC1C (centres unmarked) | 12.3% |
| CC(C(=O)Nc1ccc(S(N)(=O)=O)cc1)N1CCc2ccccc21 (centres unmarked) | 6.92% |

| Structure (SMILES) | hERG current change (%, negative = inhibition) at 1uM |
| --- | --- |
| CCOC(=O)N1CCN(C(=O)C2CCCN(Cc3nc(-c4ccc(Cl)cc4)oc3C)C2)CC1 (centres unmarked) | -57.7% |
| COC(=O)CC1C(=O)NC2CCCCC2N1C(=O)CCl (centres unmarked) | 11.5% |
| Cc1cccc(NC(=O)CN2C(=O)N/C(=C/c3ccc(C)s3)C2=O)c1 | 10.2% |
| CCN1CCN(CCOc2cccc(Oc3ccccc3)c2)CC1.O=C(O)C(=O)O | -6.32% |
| O=C(NN1CCOCC1)C12CC3CC(CC(C3)C1)C2 | 9.37% |
| COc1ccccc1C(=O)Oc1cc(N)n(S(=O)(=O)c2ccc(C)cc2)n1 | 10.2% |
| O=C(c1cccc(S(=O)(=O)N2CCCCC2)c1)N1CCN(c2ccccc2)CC1 | 0.3% |
| O=C(Nc1ccccc1C(=O)NC(Cc1ccccc1)C(=O)NC1CCCCC1)c1ccccc1 (centres unmarked) | 8.22% |
| Cc1ccc(C(=O)CSc2nc(-c3ccccc3)ccc2C#N)cc1 | 5.19% |
| CCOC(=O)C1CCCN(S(=O)(=O)c2c(C)noc2C)C1 (centres unmarked) | 3.45% |
| N#CC1=C(S)N=C(N)C(c2nc(-c3ccccc3)cs2)C12CCCC2 (centres unmarked) | 8.21% |
| Cc1ccc(NC(=O)C2(c3ccccc3)CC2(Cl)Cl)cc1C (centres unmarked) | 14.3% |
| COc1ccc(NS(=O)(=O)c2cccc(C(=O)NNC(=O)CNC(=O)c3ccccc3)c2)cc1 | 9.98% |
| Cc1ccc(-n2nc3c(=O)n(CCCC(=O)NCC(C)c4ccccc4)nc(C)c3c2C)cc1 (centres unmarked) | 2.55% |
| COc1ccccc1CC1(C)NC(=O)N(CC(=O)N2CC(C)OC(C)C2)C1=O (centres unmarked) | 10.3% |
| COc1ccc(/C=N/NC(=O)NC23CC4CC(CC(C4)C2)C3)c(OC)c1 | 12.4% |
| COc1ccc(-c2nc(CCl)cs2)cc1OC.Cl | -3.28% |
| COc1ccc(-c2noc(CCC(=O)NCCc3ccccc3)n2)cc1OC | 8.44% |
| O=[N+]([O-])c1ccc(CS(=O)(=O)N2CCN(c3ccccc3)CC2)cc1 | -3.45% |
| Cl.O=C(CNCC1CCCCC1)Nc1ccc(OC(F)(F)F)cc1 | -26.3% |
| CCC(C)COC(c1ccccc1)(c1ccccc1)C(Oc1nc(C)cc(C)n1)C(=O)O (centres unmarked) | 15.4% |
| CCOc1ccc(OCc2ccc(C(=O)NC(C)(C)C)o2)cc1 | 9.28% |
